# “And” between values parts separate entries of the source, which are not always exact repeats. Equal values may be shown once. Where a name gives a salt, the structure may show the parent alone. Out of some 5,800 compounds screened, about 620 (11%) showed activity.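 Rule for the calls: active = score above a cut-off or among the top three wells of a plate; in these data no inactive exceeds 0.85.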 The list shows a part of the results, in another mix than the full data.
# Test system: primary human hepatic stellate cells (donor 1)
# Assay: scaled lipid accumulation score (0 = DMSO-like, 1 = nortriptyline-like); higher = stronger HSC inactivation (lipid re-accumulation), active = hit call of the paper
# Details: 48 h
# [1] = library stock concentration: 7.3 mM
# [2] = library stock concentration: 10 mM
# [3] = library stock concentration: 3.33 mM
smiles,measurement,setting,value
"CNC(=O)Oc1ccc2c(c1)[C@]1(C)CCN(C)[C@@H]1N2C [Eserine sulfate, physostigmine sulfate]",scaled lipid accumulation score,,inactive: ≤ 0
CNC(=O)Oc1ccc2c(c1)[C@]1(C)CCN(C)[C@@H]1N2C [Physostigmine sulfate],scaled lipid accumulation score,[1],inactive: ≤ -0.006
CCN(CC)CCOC(=O)C(O)(c1ccccc1)c1ccccc1,scaled lipid accumulation score,[2],inactive: ≤ 0
CN(C)C(=O)Oc1ccc[n+](C)c1 [Pyridostigmine bromide],scaled lipid accumulation score,library stock concentration: 7.7 mM,inactive: ≤ 0
same,scaled lipid accumulation score,[2],inactive: ≤ 0 and inactive: ≤ -0.027
CN(C)C(=O)Oc1ccc[n+](C)c1 [Mestinon],scaled lipid accumulation score,[2],inactive: ≤ 0
CN(C)C(=O)Oc1ccc[n+](C)c1 [Pyridostigmine Bromide],scaled lipid accumulation score,[3],inactive: ≤ 0
same,scaled lipid accumulation score,[2],inactive: 0.164
C[C@@H]1O[C@@H](O[C@@H]2C=C3CC[C@@H]4[C@H](CC[C@]5(C)[C@@H](c6ccc(=O)oc6)CC[C@]45O)[C@@]3(C)CC2)[C@H](O)[C@H](O)[C@H]1O [Proscillaridin A],scaled lipid accumulation score,,inactive: 0.768
CN1CCN(c2nc3ccccc3nc2Cl)CC1,scaled lipid accumulation score,[3],inactive: ≤ 0
same,scaled lipid accumulation score,[2],inactive: 0.211
C#CCN(C)[C@H](C)Cc1ccccc1 [Selegiline],scaled lipid accumulation score,library stock concentration: 10.7 mM,inactive: ≤ -0.006
"C#CCN(C)[C@H](C)Cc1ccccc1 [Benzeneethanamine, N,Alpha-dimethyl-N-2-propynyl-(R)- [CAS]]",scaled lipid accumulation score,[2],inactive: ≤ 0
C#CCN(C)[C@H](C)Cc1ccccc1 [Selegiline hydrochloride],scaled lipid accumulation score,,inactive: 0.133
same,scaled lipid accumulation score,library stock concentration: 8.9 mM,inactive: ≤ 0
C[C@]12CC[C@@H](O)C[C@H]1CC[C@@H]1[C@@H]2CC[C@]2(C)C(=O)CC[C@@H]12 [3-alpha-Hydroxy-5-beta-androstan-17-one],scaled lipid accumulation score,,inactive: ≤ 0
CC(N)c1cccc(Cl)c1Cl (stereo not drawn),scaled lipid accumulation score,[2],inactive: 0.208
N[C@H](C(=O)O)c1cc(O)no1 [Ibotenic acid],scaled lipid accumulation score,[2],inactive: ≤ 0
N[C@H](C(=O)O)c1cc(O)no1 [(?)-Ibotenic acid],scaled lipid accumulation score,[2],inactive: 0.002
CCN1CC2(OC(=O)c3ccccc3NC(C)=O)CCC(OC)C34C1C(CC23)C1(O)CC(OC)C2CC4C1(O)C2OC (stereo not drawn) [Lappaconite HBr],scaled lipid accumulation score,[3],inactive: ≤ 0
same,scaled lipid accumulation score,[2],inactive: ≤ 0
CC(C)NCC(O)c1ccccc1Cl (stereo not drawn) [Clorprenaline HCl],scaled lipid accumulation score,[3],inactive: ≤ 0
same,scaled lipid accumulation score,[2],inactive: ≤ -0.001
Br.Br.N=C(NCc1ccc(Cl)cc1)SCCCc1c[nH]cn1 [Clobenpropit dihydrobromide],scaled lipid accumulation score,[2],active: 1.53
CCCCC/C=C\C/C=C\C/C=C\C/C=C\CCCC(=O)N[C@@H](CO)C(=O)O [N-Arachidonoyl-L-Serine],scaled lipid accumulation score,library stock concentration: 1 mM,inactive: ≤ 0
CC(=O)NCCc1c[nH]c2ccccc12 [N-Acetyltryptamine],scaled lipid accumulation score,[2],inactive: 0.21 and inactive: 0.006
CC(C(=O)OC1CC2CCC(C1)N2C)c1ccc(Br)cc1.O=C(O)/C=C\C(=O)O (stereo not drawn) [PG-9 maleate],scaled lipid accumulation score,[2],active: 0.958
O=c1[nH]c2ccccc2n1C1CCN(CCCC(c2ccc(F)cc2)c2ccc(F)cc2)CC1 [Pimozide],scaled lipid accumulation score,,inactive: 0.242
same,scaled lipid accumulation score,[2],inactive: 0.021
CCCN1CC[C@@H]2c3cc(O)ccc3CC[C@@H]21 (racemic) [cis(+/-)-8-OH-PBZI hydrobromide],scaled lipid accumulation score,[2],inactive: 0.069
O=C(O)/C=C/CO [trans-4-Hydroxycrotonic acid],scaled lipid accumulation score,[2],inactive: 0.003
CC(=O)Nc1cc([As](=O)(O)O)ccc1O [Acetarsol],scaled lipid accumulation score,[1],inactive: ≤ 0
same,scaled lipid accumulation score,[2],inactive: ≤ 0
C/C=C(\C)C(=O)O[C@H]1C[C@@H](OC(C)=O)[C@@]2(C(=O)OC)CO[C@H]3[C@@H](O)[C@@](C)([C@]45O[C@@]4(C)[C@H]4C[C@@H]5O[C@@H]5OC=C[C@@]54O)[C@H]4[C@]1(CO[C@]4(O)C(=O)OC)[C@@H]32 [Azadirachtin],scaled lipid accumulation score,[2],inactive: ≤ -0.027
Cc1cc2c(C(C)C)c(O)c(O)c(C=O)c2c(O)c1-c1c(C)cc2c(C(C)C)c(O)c(O)c(C=O)c2c1O [Gossypol],scaled lipid accumulation score,,inactive: ≤ 0
same,scaled lipid accumulation score,[3],inactive: 0.016
same,scaled lipid accumulation score,[2],inactive: 0.824 and inactive: 0.57
Cc1cc2c(C(C)C)c(O)c(O)c(C=O)c2c(O)c1-c1c(C)cc2c(C(C)C)c(O)c(O)c(C=O)c2c1O,scaled lipid accumulation score,[3],inactive: ≤ 0
same,scaled lipid accumulation score,[2],inactive: 0.142
C=CCN1CC[C@]23CCCC[C@H]2[C@H]1Cc1ccc(O)cc13 [Levallorphan tartrate],scaled lipid accumulation score,library stock concentration: 7.1 mM,inactive: 0.152
same,scaled lipid accumulation score,[2],inactive: 0.71
O=c1ccc2[nH]cc(C3=CCNCC3)c2[nH]1,scaled lipid accumulation score,[2],inactive: 0.084 and inactive: ≤ -0.006
CC[C@H]1CN2CC[C@H]1C[C@H]2[C@H](O)c1ccnc2ccc(OC)cc12 [Hydroquinine hydrobromide hydrate],scaled lipid accumulation score,,inactive: ≤ 0
